The assay deals with T1, ASCL1 (Homo sapiens, UniProt P50553).
T1 construct: the synthetic DNA encoding the hASCL1 open reading frame was subcloned in-frame into the multiple cloning site; expressed in transfected cells; host or cells: HEK-293T, lentiviral transduction with pLMEGPA-hASCL1-NFlag
T1 sequence (P50553 1-236): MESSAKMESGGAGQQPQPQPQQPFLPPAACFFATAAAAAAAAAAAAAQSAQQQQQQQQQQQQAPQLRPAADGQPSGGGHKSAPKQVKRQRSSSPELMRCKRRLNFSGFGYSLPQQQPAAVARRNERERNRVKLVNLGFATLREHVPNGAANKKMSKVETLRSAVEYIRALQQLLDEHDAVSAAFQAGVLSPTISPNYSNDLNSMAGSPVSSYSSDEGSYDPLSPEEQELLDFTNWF
As to the kind of experiment: ASCL1 immunohistochemistry on FFPE sections with anti-ASCL1 clone SC72.2. It counts as binding. The following applies: antibody 10 μg/ml. Here is the method:
IHC was performed essentially as follows. Planar sections of formalin fixed and paraffin embedded (FFPE) tissues were cut and mounted on glass microscope slides. After xylene de-paraffinization 5 μm sections were pre-treated with Antigen Retrieval Solution (Dako) for 20 mins. at 99° C., cooled to 75° C. and then treated with 0.3% hydrogen peroxide in PBS followed by Avidin/Biotin Blocking Solution (Vector Laboratories). FFPE slides were then blocked with 10% horse serum in 3% BSA in PBS buffer and incubated with a primary anti-ASCL1 antibody (clone SC72.2), diluted to 10 μg/ml in 3% BSA/PBS, for 30 mins. at room temperature. The FFPE slides were incubated with biotin-conjugated horse anti-mouse antibody (Vector Laboratories), diluted to 2.5 μg/ml in 3% BSA/PBS, for 30 mins. at room temperature followed by incubation in streptavidin-HRP (ABC Elite Kit; Vector Laboratories). Chromogenic detection was developed with 3,3′-diaminobenzidine (Thermo Scientific) for 5 mins. at room temperature and tissues were counterstained with Meyer's hematoxylin (IHC World), washed with alcohol and immersed in xylene. Sections were then viewed by brightfield microscopy and ASCL1 expression was noted.
PDX tumors were stained by IHC (FIG. 12) and ASCL1 protein expression by IHC correlates with the expected ASCL1 mRNA expression based on microarray results.

B1: SC72.2: murine anti-ASCL1 antibody, VL SEQ ID NO: 521, VH SEQ ID NO: 523 (antibody, listed as Mus musculus, V domains shown)
VH: QVQLQQSGAELVRPGASVTLSCKASGYTFIDYEMHWVKQTPVHGLEWIGAIDPETGGTTYNQNFKGKATLTADKSSNTAYMELRSLTSGDSAVYYCSRGGLDYWGQGTTLTVSS
VL: DVVMTQTPLTLSVTIGQPASISCKSSQSLLDSDGKTYLNWLLQRPGESPKLLIYLVSKLDSGVPDRFTGSGSGTDFTLKISRVEAEDLGVYYCLQATHFPQLTFGAGTKLELK
Take B1: the “ASCL1 expression detected by IHC” value is reported as “detected in the nucleus” (293 cells engineered to express ASCL1 (293-ASCL1)) and “not in naïve 293 cells” (naïve 293 cells).

These data come from patent publication US20190201542A1, “ANTI-DLL3 DRUG CONJUGATES FOR TREATING TUMORS AT RISK OF NEUROENDOCRINE TRANSITION” (ABBVIE STEMCENTRX LLC, priority 2016, published 2019).
